Molecules are shown by their SMILES. About 400 (5.1%) of roughly 7,900 compounds showed an effect of 50% or more. Some of the results follow.

The experiment deals with Parkinson's disease protein 7 (PARK7/DJ1) (human, UniProt Q99497). The experiment is described as follows: primary screen, percent inhibition; read as competition with a fluorescent probe by fluorescence polarization; higher = more effect of the substance. Conditions: 100 µM. The method, boiled down: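 Fluorescence-polarization probe displacement (JYQ-107, 20 nM final, 2 h) after 2 h preincubation of PARK7 (0.2 μM final) with each fragment at 100 μM final. Read-out ex/em 480/520 nm; remaining activity derived from FP signal loss relative to reference controls.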
Parkinson's disease protein 7 (PARK7/DJ1), sequence (Q99497 whole entry, looked up, the tested form may be a part): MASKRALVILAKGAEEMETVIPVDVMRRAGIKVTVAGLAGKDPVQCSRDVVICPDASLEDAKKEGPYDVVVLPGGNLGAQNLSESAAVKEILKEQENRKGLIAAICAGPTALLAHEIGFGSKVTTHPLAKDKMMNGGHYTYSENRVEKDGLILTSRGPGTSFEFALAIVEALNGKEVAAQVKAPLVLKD
Turning to `CCOc1ccc(Cl)cc1S(=O)(=O)n1ccnc1`, the Inhibition % is listed as 10.2%. On to `CCCn1c(S)nc2ccccc2c1=O`, for which the Inhibition % is recorded as 1.74%. For the molecule `C=CC(=O)N1CCN(c2ccc(OC)cn2)CC1`, the Inhibition % is listed as 5.59%. Next, `Cc1nc(C)n(CCCl)n1.Cl`: 4.09%; `C=CC(=O)NC(C)c1oc2ccc(OC)cc2c1C` (centres unmarked): 0.0978%. With `CC1CCCN(C(=O)C=Cc2cncc(F)c2)C1CN` (centres unmarked), the Inhibition % is given as 3.68%. `COCC(C)n1c(C)cc(C=C(C#N)C(N)=O)c1C` (centres unmarked): the Inhibition % stood at 2.81%. The value for `O=C(c1cccnc1S)N1CCC(C2CCOCC2)CC1` was 12.1%; that for `OB(O)c1cnn(-c2cccc(C(F)(F)F)c2)c1` was 10.7%. Next, `O=C(CCl)Nc1cc(C(F)(F)F)cc(C(F)(F)F)c1`: 8.7%; `Clc1ccccc1COCC1CO1` (centres unmarked): 9.97%; `O=S(=O)(c1ccc(Cl)cc1)n1cccn1`: -0.854%. For `O=C(Cn1c(S)nc2ccccc2c1=O)NCCCF`, the Inhibition % came out at 2.06%. The value for `O=C(Oc1ccc(Cl)c2cccnc12)N1CCCC1` was 1.25%. Next, `COc1ccc(Cl)cc1S(=O)(=O)n1cccn1`: 2.42%; `C=CC(=O)N1CC(Cc2ccc(C)cc2)C1`: 2.16%; `CC1COCCN1Cn1nc(-c2ccc(F)cc2)oc1=O` (centres unmarked): 7.55%. The value for `N#Cc1nc(Cl)ccc1Cl` was 1.89%; that for `CC1CCN(C(=O)CCl)CC1` was 14.9%; that for `CC(NC(=O)CCl)c1cccc2ccccc12` (centres unmarked) was 5.24%. As for `COc1cc(C)c(C)cc1S(=O)(=O)n1cnc(C)c1`, the Inhibition % worked out at 6.69%. Next, `Nc1c(C(=O)CCl)c(=O)[nH]c(=O)n1C1CC1`: 6.34%; `CC(C)N1CCOC(CCl)C1` (centres unmarked): 5.12%; `O=C1CCN1c1ccc(C(F)(F)F)cc1`: -0.967%. The value for `C=CC(=O)N1CC(COC)(C2CC2)C1` was 8.62%; that for `Cc1cc(C(=O)CCl)c(C)[nH]1` was 98.2%. Next, `C=CC(=O)NC1CCN(c2cccc(F)c2)CC1`: -0.875%; `Cc1nc(C)n(C(=O)N2CCOCC2)n1`: 12.2%; `CC1(COS(C)(=O)=O)COC1`: 18.4%. In the case of `C=CC(=O)NC1CCN(c2ncccc2F)C1` (centres unmarked), the Inhibition % was 14.9%. Next, `CCOc1ccc(C=O)c(O)c1`: 12.4%.

With `O=C1CN=C(S)N1c1ccc(Cl)cc1`, the Inhibition % is reported as -0.469%.

As to `C=CC(=O)Nc1nc(C2CC2)cs1`, the Inhibition % came out at 7.88%.

For the molecule `O=c1onc(-c2cnccn2)n1Cc1cccc(F)c1F`, the Inhibition % worked out at 14.9%. On to `N#CC(=Cc1csnn1)c1ccccn1`, for which the Inhibition % turned out to be 6.94%. In the case of `C=CC(=O)N1CCOC(c2ccccc2C(F)(F)F)C1` (centres unmarked), the Inhibition % came out at 0.855%. Next, `NC(=O)CC1(NS(=O)(=O)C=Cc2ccccc2)CCC1`: 2.61%; `c1cc2c(cc1COCC1CO1)OCO2` (centres unmarked): 3.59%.

For the molecule `C=CC(=O)N1CCOC(COC)C1` (centres unmarked), the Inhibition % worked out at 13.6%. Consider `O=S(=O)(C=Cc1ccccc1)NCc1ccccc1`, for which the Inhibition % is listed as 8.21%. The value for `COc1ccccc1CNC(=O)CCl` was 28%; that for `Cc1ccn(S(=O)(=O)c2ccc(C)c(C)c2C)n1` was 1.17%; that for `O=C1OCCC1Sc1nnc(-c2ccc(Cl)cc2)[nH]1` (centres unmarked) was 47.6%.

In the case of `Cc1noc(CCNS(=O)(=O)C=Cc2ccccc2)n1`, the Inhibition % worked out at 3.42%. The value for `Cc1ccn(S(=O)(=O)c2ccc(C)c(C)c2)n1` was 5.98%; that for `N#Cc1ccc(N2CCSCC2)cn1` was 6.47%. Next, `Cc1cc(CC(C)NC(=O)c2cccnc2S)n[nH]1` (centres unmarked): 5.43%. The value for `C=CC(=O)Nc1cc(C(F)(F)F)n[nH]1` was 9.56%; that for `C=CC(=O)NCc1cc(C)on1` was 8.31%. In the case of `C=CC(=O)NCCc1c(C)oc2ccccc12`, the Inhibition % was 5.03%. As to `Cc1cc(C=C(C#N)C(=O)O)ccc1Oc1cccnc1`, the Inhibition % stood at 29.4%.

Consider `C#CC(=O)c1ccc(OC)cc1`, for which the Inhibition % came to 3.18%.

As to `Cc1cc(C(=O)CCl)c(C)n1-c1ccon1`, the Inhibition % was 82.8%. Take `CCn1cc(S(=O)(=O)Oc2cccc(F)c2)nc1C`: the Inhibition % is 3.67%.

Turning to `CC(C)CCNS(=O)(=O)C=Cc1ccccc1`, the Inhibition % stood at 10.5%. Consider `C=CC(=O)NC1CCCOc2ccccc21` (centres unmarked), for which the Inhibition % was 5.96%. As for `COc1ccc(CN(C)C(=O)CCl)cc1`, the Inhibition % is reported as 61.5%. Turning to `C=CCNS(=O)(=O)C=Cc1ccccc1`, the Inhibition % came out at 7.29%. Regarding `O=S1(=O)CCCN1c1cccc(NCc2ccc(B(O)O)cc2)c1`, the Inhibition % is reported as 12.3%.

As for `Cc1oc(C(N)=O)cc1C(=O)CCl`, the Inhibition % came to 30.9%. Next, `N#Cc1ncn(CC(=O)NCc2ccc(F)cc2)n1`: 8.52%; `CCc1ccccc1NC(=O)CNC(=O)CCl`: 9.85%; `COc1cccc(NC(=O)CN(C)C(=O)CCl)c1`: 95.9%. The value for `Cc1ccc(C=C(C#N)C(=O)O)cc1` was 5.59%; that for `C#Cc1ccc(NC(=O)C=C)cc1` was 28.3%; that for `COCCn1c(C)cc(C(=O)CCl)c1C` was 49.1%. The value for `C=CC(=O)Nc1cc(CC(C)(C)C)nn1C` was 8.54%; that for `CC(=O)N1CCCC(S(=O)(=O)Oc2cccc(F)c2)C1` (centres unmarked) was 4.42%. Turning to `CCOc1cc(C)c(Cl)cc1S(=O)(=O)n1ccnc1`, the Inhibition % worked out at 2.09%. Regarding `O=C(CCl)N1CCNC1=O`, the Inhibition % is given as 78%. Regarding `CC(C)C1(c2ccccc2)CO1` (centres unmarked), the Inhibition % is listed as 4.43%. The value for `O=C(CCl)NNc1c(Cl)cc(Cl)cc1Cl` was 3.13%; that for `CS(=O)(=O)N1CCN(C(=O)Oc2ccccc2)CC1` was 10.1%; that for `O=C(Oc1ccnc2cc(Cl)ccc12)N1CCOCC1` was 6.01%. The value for `CC1NC(=O)N(CCCl)C1=O` (centres unmarked) was 7.7%; that for `N#CCC1(O)CN(S(=O)(=O)C=Cc2ccc(Cl)cc2)C1` was 0.0636%.

Regarding `CCN(Cc1cccc(F)c1)C(=O)CCl`, the Inhibition % stood at 6.87%. The value for `COc1cc(S(=O)(=O)n2ccnc2)ccc1Cl` was 10%; that for `Cl.ClCC12CCN(CC1)CC2` was 9.63%; that for `CC1(C)OB(c2ccc(F)c(OC(F)(F)F)c2)OC1(C)C` was 6.24%.

Source of the values: article PMC9574860, “Chemical Toolkit for PARK7: Potent, Selective, and High-Throughput” (Journal of Medicinal Chemistry, 2022).
